Measurements as given in patent US20200002426A1 (published 2020).
Values joined by “and” are separate entries in the source; they are usually repeats but may differ in a detail not shown here. Identical values can stand only once.

Biological target: huTGF-β1 (human, UniProt P01137 in part)
Experiment: ELISA; bridging ELISA, coated huTGF-β1, detected with biotinylated huVEGF165

Chain of huTGF-β1 (P01137 279-390): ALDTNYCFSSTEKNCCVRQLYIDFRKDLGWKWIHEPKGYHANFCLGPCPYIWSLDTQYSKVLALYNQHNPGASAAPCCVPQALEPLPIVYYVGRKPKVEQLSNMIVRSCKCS

EC50: 1.8 nM and 0.09 µg/mL
B1: Bi-A1B-1 (bispecific antibody)
heavy: EVQLVQSGGGVVQPGGSLRLSCAASGYTFTNYGMNWVRQAPGKGLEWVGWINTYTGEPTYAADFKRRFTFSLDTSKSTAYLQMNSLRAEDTAVYYCAKYPHYYGSSHWYFDVWGQGTLVTVSSASTKGPSVFPLAPSSKSTSGGTAALGCLVKDYFPEPVTVSWNSGALTSGVHTFPAVLQSSGLYSLSSVVTVPSSSLGTQTYICNVNHKPSNTKVDKRV[human IgG1 Fc left out]GGGGSGGGGSGGGGSGGGGSGIPPHVQKSVNNDMIVTDNNGAVKFPQLCKFCDVRFSTCDNQKSCMSNCSITSICEKPQEVCVAVWRKNDENITLETVCHDPKLPYHDFILEDAASPKCIMKEKKKPGETFFMCSCSSDECNDNIIFSEEYNTSNPD
light: DIQMTQSPSSLSASVGDRVTITCSASQDISNYLNWYQQKPGKAPKVLIYFTSSLHSGVPSRFSGSGSGTDFTLTISSLQPEDFATYYCQQYSTVPWTFGQGTKVEIKRTVAAPSVFIFPPSDEQLKSGTASVVCLLNNFYPREAKVQWKVDNALQSGNSQESVTEQDSKDSTYSLSSTLTLSKADYEKHKVYACEVTHQGLSSPVTKSFNRGEC
